Reference: the antibiotic and cytotoxicity screens of Wong et al. (2023)
This is one part of the list.

tested on: HSkMC (human skeletal muscle cells); assay: cytotoxicity call (relative viability < 0.9); conditions: 10 µM

SMILES	cytotoxicity call
C[C@@H]1CCCCO[C@@H](CN(C)S(=O)(=O)c2cccs2)[C@@H](C)CN([C@H](C)CO)C(=O)c2cc(NS(C)(=O)=O)ccc2O1	inactive
COC(=O)[C@@H](Cc1ccc(-n2cc(COc3ccccc3/C=C(C)/C=C/C(=O)NO)nn2)cc1)N1CC2=C[C@H](C3CC3)n3c(=O)n(C)c(=O)n3[C@@H]2[C@H]1[C@H](O)Cc1ccccc1	inactive
O=C(C[C@@H]1CC=CCCC(=O)OC[C@@H](Cc2c[nH]c3ccccc23)NC1=O)N[C@@H](CO)Cc1ccccc1	inactive
C[C@@H]1CCCCO[C@@H](CN(C)C(=O)CCCN(C)C)[C@@H](C)CN([C@H](C)CO)C(=O)c2cc(NS(=O)(=O)c3cn(C)cn3)ccc2O1	inactive
O=C(O)CC[C@H](NC(=O)CCn1nnc2ccccc2c1=O)C(=O)O	inactive
Cc1ccc(S(=O)(=O)Nc2ccc3c(c2)C(=O)N([C@@H](C)CO)C[C@H](C)[C@@H](CN(C)S(=O)(=O)c2cn(C)cn2)O3)cc1	inactive
COCC#Cc1cnc2c(c1)C(=O)N([C@@H](C)CO)C[C@H](C)[C@H](CN(C)C(=O)Nc1ccccc1OC)O2	inactive
Cc1noc(C)c1NC(=O)N(C)C[C@H]1Oc2ccc(NS(=O)(=O)c3c(C)noc3C)cc2C(=O)N([C@@H](C)CO)C[C@@H]1C	inactive
O=C(CN1CCOCC1)NCC[C@H]1CC[C@H](NS(=O)(=O)c2ccc(F)cc2)[C@@H](CO)O1	inactive
CC(C)(CN)CN1CCCCCC1	inactive
C[C@@H]1CN([C@@H](C)CO)C(=O)c2cc(NS(C)(=O)=O)ccc2O[C@@H](C)CCCCO[C@H]1CN(C)Cc1ccc(C(F)(F)F)cc1	inactive
O=C(CCCCCCC(=O)Nc1ccccc1)NO	inactive
C[C@@H]1CCCCO[C@H](CN(C)Cc2ccc(C(=O)O)cc2)[C@H](C)CN([C@H](C)CO)C(=O)c2cc(NC(=O)C3CCCCC3)ccc2O1	inactive
C[C@H](CO)N1C[C@H](C)[C@H](CN(C)S(C)(=O)=O)Oc2ccc(NC(=O)Nc3ccc4c(c3)OCO4)cc2CC1=O	inactive
COc1ccc(S(=O)(=O)N(C)C[C@@H]2OCCCC[C@@H](C)Oc3ccc(NC(=O)NC4CCCCC4)cc3C(=O)N([C@@H](C)CO)C[C@H]2C)cc1	inactive
O=C(C[C@H]1C[C@H]2c3cc(NC(=O)c4ccc5c(c4)OCO5)ccc3O[C@H]2[C@H](CO)O1)NCc1ccc(Oc2ccccc2)cc1	active
Cc1noc(C)c1NC(=O)Nc1ccc2c(c1)CC(=O)N([C@H](C)CO)C[C@H](C)[C@@H](CN(C)C(=O)Nc1ccc(C(F)(F)F)cc1)O2	inactive
C[C@@H]1CCCCO[C@H](CN(C)C(=O)Nc2ccccc2)[C@H](C)CN([C@H](C)CO)C(=O)c2cc(NC(=O)Cc3ccccc3)ccc2O1	inactive
C[C@@H]1CN([C@@H](C)CO)C(=O)Cc2cc(NC(=O)CCN3CCOCC3)ccc2O[C@H]1CN(C)C(=O)Nc1ccccc1	inactive
C[C@H]1CN([C@@H](C)CO)C(=O)Cc2cc(NC(=O)Nc3cc(Cl)cc(Cl)c3)ccc2O[C@H]1CN(C)S(=O)(=O)c1ccc(Oc2ccccc2)cc1	inactive

SMILES	cytotoxicity call
COc1cccc(CNC(=O)C[C@@H]2C=C[C@H](NC(=O)C3CCOCC3)[C@H](CO)O2)c1	inactive
CC(C)NC(=O)N(C)C[C@H]1OCCCC[C@H](C)Oc2ccc(NC(=O)Nc3cccc4ccccc34)cc2C(=O)N([C@H](C)CO)C[C@@H]1C	inactive
C[C@H](O)C#Cc1ccc2c(c1)O[C@H](CN(C)C(=O)c1ccccc1)[C@@H](C)CN([C@H](C)CO)S2(=O)=O	inactive
O=C([O-])c1ccccc1-c1c2cc(I)c(=O)c(I)c-2oc2c(I)c([O-])c(I)cc12.[Na+].[Na+]	inactive
C[C@@H]1CCCCO[C@@H](CN(C)C(=O)c2ccccc2)[C@@H](C)CN([C@H](C)CO)C(=O)c2cc(NS(=O)(=O)c3ccccc3)ccc2O1	inactive
C[C@@H]1CN([C@H](C)CO)C(=O)c2cc(NC(=O)c3ccccc3)ccc2O[C@@H](C)CCCCO[C@H]1CN(C)S(=O)(=O)c1ccc(Cl)cc1	inactive
Cc1noc(C)c1NC(=O)Nc1ccc2c(c1)C(=O)N([C@H](C)CO)C[C@H](C)[C@H](CN(C)C(=O)Nc1ccc(C(F)(F)F)cc1)OCCCC[C@H](C)O2	inactive
C=C1c2cccc(O)c2C(=O)[C@@H]2C(=O)[C@]3(O)C(=O)[C@@H](C(N)=O)C(=O)[C@@H](N(C)C)[C@@H]3[C@@H](O)[C@H]12	inactive
C[C@H](CO)N1C[C@H](C)[C@H](CN(C)C(=O)Nc2ccccc2)Oc2ccc(NC(=O)CCCCCC(=O)Nc3ccccc3N)cc2C1=O	inactive
C[C@H]1CCCCO[C@H](CN(C)C(=O)Cc2ccccc2)[C@@H](C)CN([C@@H](C)CO)C(=O)c2cc(NS(=O)(=O)c3cccs3)ccc2O1	inactive
CC(=O)N[C@@H](Cc1ccccc1)C(=O)NN	inactive
C[C@H](CO)N1C[C@H](C)[C@@H](CN(C)S(=O)(=O)c2ccc(Cl)cc2)Oc2c(NC(=O)C3CC3)cccc2C1=O	inactive
COc1ccc(NC(=O)N(C)C[C@@H]2OCCCC[C@@H](C)Oc3ccc(NC(=O)c4ccncc4)cc3C(=O)N([C@H](C)CO)C[C@H]2C)cc1	inactive
CC(C)[Si]1(C(C)C)OCc2cc(-c3ccc(-c4ccc(Cl)c(Cl)c4)o3)nc(CCc3ccccc3)c21	inactive
COc1ccc(NC(=O)N(C)C[C@H]2OCCCC[C@H](C)Oc3ccc(NC(=O)c4ccncc4)cc3C(=O)N([C@@H](C)CO)C[C@@H]2C)cc1	inactive
Cc1noc(C)c1S(=O)(=O)Nc1ccc2c(c1)CC(=O)N([C@@H](C)CO)C[C@@H](C)[C@@H](CN(C)S(=O)(=O)c1ccc(F)cc1)O2	inactive
C[C@H]1CCCCO[C@H](CN(C)Cc2ccc3c(c2)OCO3)[C@@H](C)CN([C@@H](C)CO)C(=O)c2cc(NC(=O)Nc3ccc(C(F)(F)F)cc3)ccc2O1	active
C[C@@H]1CCCCO[C@@H](CN(C)C(=O)C2CCCCC2)[C@@H](C)CN([C@@H](C)CO)C(=O)c2cc(NC(=O)Nc3cccc4ccccc34)ccc2O1	inactive
C[C@H](CO)N1C[C@H](C)[C@H](CN(C)Cc2ccc3c(c2)OCO3)Oc2ccc(NS(C)(=O)=O)cc2CC1=O	inactive
C[C@@H]1CCCCO[C@@H](CN(C)C(=O)Nc2ccccc2)[C@H](C)CN([C@@H](C)CO)C(=O)c2cc(NC(=O)Nc3cccc4ccccc34)ccc2O1	inactive
